Experimental data: the supplement of paper PMC10126150
Values marked as one replicate rest on one cluster of the flow cell; about a third of the high ones do not repeat.
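Note: ATP exposure 15 min at 22 °C before imaging.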

These sequences were tested on ATP (assay: switch fluorescence ratio, 500 uM ATP over buffer (Cy3 cluster intensity, sum of 5 cycles each) (fold (ratio)); higher = stronger signal-on switching upon ATP binding; sequences stand for … in TCGTCGGCAGCGTCAGATGTGTATAAGAGACAGTTTTTTTTTTTTTTTTTTTTTTTTT…TC). Conditions: aptamer strand: ATP DNA aptamer (quencher-CACCTGGGGGAGTATTGCGGAGGAAGG + anchor), 100 nM annealed; ATP concentration: 500 uM; one replicate.
Summary of the method: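 After annealing to 100 nM quencher-labelled ATP aptamer, Cy3-labelled switching-strand clusters on a modified Illumina MiSeq flow-cell were imaged in selection buffer. A second image followed after 15 min with 500 uM ATP at 22 °C, and five such buffer/ATP cycles were done, each separated by NaOH stripping and re-annealing. The fluorescence ratio, averaged per switch-domain sequence, is summed target-cycle over summed buffer-cycle Cy3 intensity per cluster, with clusters outside 100-1000 RFU excluded.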
In the case of ATGGTAATCG, the switch fluorescence ratio was 0.995.
For ATGGTCTACG, the switch fluorescence ratio was 1.02.
For ATGGTCTGGA, the switch fluorescence ratio was 1.03.
With ATGGTGACG the switch fluorescence ratio was 0.918.
With ATGGTGCCGG the switch fluorescence ratio was 1.06.
With ATGGTGTGAT the switch fluorescence ratio was 0.994.
Sequence ATGGTGTTGT has a switch fluorescence ratio of 1.21.
In the case of ATGGTTATTG, the switch fluorescence ratio was 0.982.
For ATGGTTGCA, the switch fluorescence ratio was 0.985.
ATGTAATCC showed a switch fluorescence ratio of 1.02.
ATGTACATAC was tested, and the switch fluorescence ratio was 1.25.
ATGTAGATTG showed a switch fluorescence ratio of 0.994.
For ATGTAGCTCC, the switch fluorescence ratio was 1.05.
ATGTAGTCGT gave a switch fluorescence ratio of 0.856.
With ATGTATTATC the switch fluorescence ratio was 0.997.
Work on ATGTCCCACC yielded a switch fluorescence ratio of 1.04.
Work on ATGTCCTGG yielded a switch fluorescence ratio of 0.973.
Work on ATGTCGCCTG yielded a switch fluorescence ratio of 1.01.
ATGTGAAGAA showed a switch fluorescence ratio of 1.02.
ATGTGATGTG was tested, and the switch fluorescence ratio was 0.95.
Work on ATGTGCCGAA yielded a switch fluorescence ratio of 1.01.
ATGTGCTTTT showed a switch fluorescence ratio of 0.988.
ATGTGGAAAT showed a switch fluorescence ratio of 1.02.
For ATGTGGAGCA, the switch fluorescence ratio was 0.994.
ATGTGGCCCC gave a switch fluorescence ratio of 0.984.
With ATGTGGGAAA the switch fluorescence ratio was 0.994.
ATGTGTCAGT showed a switch fluorescence ratio of 0.994.
With ATGTGTTAGG the switch fluorescence ratio was 1.02.
ATGTGTTCGC gave a switch fluorescence ratio of 1.02.
ATGTTACAT gave a switch fluorescence ratio of 1.03.
For ATGTTCGATA, the switch fluorescence ratio was 1.04.
With ATGTTCGGAC the switch fluorescence ratio was 1.03.
Work on ATGTTGACGT yielded a switch fluorescence ratio of 1.06.
ATGTTGCCAT showed a switch fluorescence ratio of 0.949.
With ATGTTGCGTC the switch fluorescence ratio was 1.11.
For ATGTTGTATG, the switch fluorescence ratio was 1.
With ATGTTTGTAT the switch fluorescence ratio was 1.01.
With ATGTTTTGGT the switch fluorescence ratio was 0.975.
Work on ATTAAAAAGG yielded a switch fluorescence ratio of 1.03.
ATTAAGGCC was tested, and the switch fluorescence ratio was 1.01.
For ATTAAGGGC, the switch fluorescence ratio was 0.946.
In the case of ATTAATACAG, the switch fluorescence ratio was 1.03.
Sequence ATTAATACT has a switch fluorescence ratio of 1.03.
For ATTAATAGAT, the switch fluorescence ratio was 1.01.
With ATTAATATTG the switch fluorescence ratio was 0.978.
ATTACACAAT showed a switch fluorescence ratio of 1.04.
For ATTACACATA, the switch fluorescence ratio was 1.32.
ATTACATCAT showed a switch fluorescence ratio of 0.948.
ATTACCTGAA gave a switch fluorescence ratio of 1.03.
ATTACGAGCA was tested, and the switch fluorescence ratio was 1.2.
ATTACGGATC gave a switch fluorescence ratio of 1.75.
ATTACGGGCC showed a switch fluorescence ratio of 0.996.
With ATTACGGTGC the switch fluorescence ratio was 1.14.
In the case of ATTACTAATG, the switch fluorescence ratio was 1.03.
In the case of ATTACTAATT, the switch fluorescence ratio was 0.998.
Work on ATTACTCACG yielded a switch fluorescence ratio of 1.46.
Work on ATTACTGGGA yielded a switch fluorescence ratio of 1.01.
Work on ATTAGACACG yielded a switch fluorescence ratio of 1.04.
Sequence ATTAGATTGG has a switch fluorescence ratio of 1.01.
ATTAGCCAGA showed a switch fluorescence ratio of 0.966.
Sequence ATTAGCGATG has a switch fluorescence ratio of 0.971.
With ATTAGGCTGC the switch fluorescence ratio was 0.957.
In the case of ATTAGGTTCC, the switch fluorescence ratio was 1.06.
Sequence ATTAGTGAGT has a switch fluorescence ratio of 0.958.
For ATTAGTGGG, the switch fluorescence ratio was 1.
Work on ATTAGTTAGG yielded a switch fluorescence ratio of 0.987.
Sequence ATTATACGTT has a switch fluorescence ratio of 1.02.
Sequence ATTATAGATG has a switch fluorescence ratio of 0.939.
ATTATGCCAA gave a switch fluorescence ratio of 0.983.
For ATTATGGGCT, the switch fluorescence ratio was 0.988.
In the case of ATTATTGCAG, the switch fluorescence ratio was 0.999.
In the case of ATTATTGCCT, the switch fluorescence ratio was 0.987.
For ATTATTTTTG, the switch fluorescence ratio was 1.04.
For ATTCAAATA, the switch fluorescence ratio was 0.999.
Work on ATTCAATACG yielded a switch fluorescence ratio of 1.19.
Work on ATTCAATTA yielded a switch fluorescence ratio of 0.963.
In the case of ATTCAGAACG, the switch fluorescence ratio was 1.02.
In the case of ATTCAGTGGC, the switch fluorescence ratio was 0.968.
ATTCCAAGCG was tested, and the switch fluorescence ratio was 1.1.
ATTCCCACGA was tested, and the switch fluorescence ratio was 1.06.
With ATTCCCGGGT the switch fluorescence ratio was 1.01.
Sequence ATTCCGACAG has a switch fluorescence ratio of 1.95.
Sequence ATTCCGCAAA has a switch fluorescence ratio of 2.65.
ATTCCGGTAA was tested, and the switch fluorescence ratio was 1.61.
With ATTCCTAGG the switch fluorescence ratio was 1.02.
Work on ATTCCTGGTT yielded a switch fluorescence ratio of 1.03.
ATTCGATTCA was tested, and the switch fluorescence ratio was 0.924.
ATTCGCTGAT was tested, and the switch fluorescence ratio was 1.08.
ATTCGGACTC showed a switch fluorescence ratio of 0.968.
In the case of ATTCGTGCAA, the switch fluorescence ratio was 1.19.
ATTCGTGGCT was tested, and the switch fluorescence ratio was 0.961.
With ATTCTAAGTC the switch fluorescence ratio was 1.05.
ATTCTAATTG was tested, and the switch fluorescence ratio was 0.974.
With ATTCTACTG the switch fluorescence ratio was 0.951.
ATTCTCCGG showed a switch fluorescence ratio of 1.1.
In the case of ATTCTCGAGG, the switch fluorescence ratio was 0.964.
ATTCTCTAAT showed a switch fluorescence ratio of 0.984.
ATTCTGAGGT was tested, and the switch fluorescence ratio was 1.02.
Work on ATTCTGTTT yielded a switch fluorescence ratio of 0.989.
For ATTCTTAACT, the switch fluorescence ratio was 1.1.
Work on ATTCTTAAGC yielded a switch fluorescence ratio of 1.01.
